Assay results taken from the supplement of paper PMC8512760.
The list shows a part of the results. Repeats are few or missing, and single values can be far off.

test system: HCC-1187; assay: cell viability relative to vehicle (% of vehicle); basal-like triple-negative breast cancer lines; higher = less cytotoxic; settings: 10 µM; 72 h
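Further: stably firefly luciferase-GFP labeled cells in 96-well plates, viability read as luciferase photon flux after d-luciferin addition, treated wells normalized to vehicle wells, single-dose high-throughput screen.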

Q: Which cell viability does the source give for COc1cc(Nc2ncc(F)c(Nc3ccc4c(n3)N(COP(=O)(O)O)C(=O)C(C)(C)O4)n2)cc(OC)c1OC [Fostamatinib (R788)] here?
A: Its cell viability is 49.3.

Q: C1N2CN3CN1CN(C2)C3 [Methenamine] was tested. Which cell viability did it give?
A: Its cell viability is 96.4.

Q: Which cell viability does the source give for CC(C)(C#N)c1cc(Cn2cncn2)cc(C(C)(C)C#N)c1 [Anastrozole] here?
A: The cell viability was 113.

Q: CCCCCCNC(=O)n1cc(F)c(=O)[nH]c1=O [Carmofur] was tested. Which cell viability did it give?
A: The cell viability was 73.3.

Q: Cc1cc(NS(=O)(=O)c2ccc(N)cc2)no1 [Sulfamethoxazole] was tested. Which cell viability did it give?
A: The cell viability was 98.9.

Q: Which cell viability does the source give for CC12C=CC(=O)C=C1CCC1C2C(=O)CC2(C)C1CCC2(O)C(=O)CO (stereo not given) [Prednisone] here?
A: The cell viability was 94.

Q: CC(O)C1C(=O)N2C(C(=O)O)=C(SC3CNC(C(=O)N(C)C)C3)C(C)C12 (stereo not given) [Meropenem] was tested. Which cell viability did it give?
A: The cell viability was 105.

Q: Which cell viability does the source give for CCN(CC)CCOc1ccc(C(=C(Cl)c2ccccc2)c2ccccc2)cc1.O=C(O)CC(O)(CC(=O)O)C(=O)O [Clomiphene citrate] here?
A: The cell viability was 108.

Q: With C#Cc1cccc(Nc2ncnc3cc(OC)c(OCCCCCCC(=O)NO)cc23)c1 as the compound, how does the cell viability read?
A: The cell viability was 76.7.

Q: Which cell viability does the source give for CS(=O)(=O)Nc1ccc([N+](=O)[O-])cc1Oc1ccccc1 [Nimesulide] here?
A: Its cell viability is 102.

Q: Which cell viability does the source give for O=C(NCCN1CCOCC1)c1ccc(Cl)cc1 here?
A: The cell viability was 107.

Q: For CNC(=O)c1cc(Oc2ccc(NC(=O)Nc3ccc(Cl)c(C(F)(F)F)c3)cc2)ccn1 [Sorafenib], which cell viability is on record?
A: Its cell viability is 101.

Q: With Cc1nnc(NS(=O)(=O)c2ccc(N)cc2)s1 [Sulfamethizole] as the compound, how does the cell viability read?
A: The cell viability was 83.6.

Q: For Clc1ccc(COC(Cn2ccnc2)c2ccc(Cl)cc2Cl)c(Cl)c1.O=[N+]([O-])O (stereo not given) [Miconazole Nitrate], which cell viability is on record?
A: Its cell viability is 103.

Q: Which cell viability does the source give for CC(O)C1C(=O)N2C(C(=O)O)=C(SC3CNC(CNS(N)(=O)=O)C3)C(C)C12 (stereo not given) [Doripenem] here?
A: The cell viability was 86.1.

Q: N#CC(c1ccc(Cl)cc1)c1c(Cl)cc(-n2ncc(=O)[nH]c2=O)cc1Cl (stereo not given) [Diclazuril] was tested. Which cell viability did it give?
A: Its cell viability is 86.8.

Q: How did the cell viability turn out when N#CC(=C1SCC(c2ccc(Cl)cc2Cl)S1)n1ccnc1 (stereo not given) [Luliconazole] was run?
A: The cell viability was 111.

Q: CCCCc1nc(Cl)c(CO)n1Cc1ccc(-c2ccccc2-c2nnn[n-]2)cc1.[K+] [Losartan Potassium (DuP 753)] was tested. Which cell viability did it give?
A: The cell viability was 89.4.

Q: How did the cell viability turn out when Nc1ccc(C(=O)NCC(=O)[O-])cc1.[Na+] [Sodium 4-amiropparaty Hyalrate] was run?
A: Its cell viability is 91.2.

Q: How did the cell viability turn out when COc1cc2nc(N(C)CCCNC(=O)C3CCCO3)nc(N)c2cc1OC.Cl (stereo not given) [Alfuzosin HCl] was run?
A: Its cell viability is 82.8.

test system: MDA-468; assay: as above; settings: 10 µM; 72 h

Q: With CN(Cc1ccc(C(C)(C)C)cc1)Cc1cccc2ccccc12.Cl [Butenafine HCl] as the compound, how does the cell viability read?
A: The cell viability was 114.

Q: CCCCc1ncc(C=C(Cc2cccs2)C(=O)O)n1Cc1ccc(C(=O)O)cc1.CS(=O)(=O)O [Eprosartan Mesylate] was tested. Which cell viability did it give?
A: The cell viability was 132.

Q: Which cell viability does the source give for Clc1ccc(C(c2ccccc2Cl)C(Cl)Cl)cc1 (stereo not given) [Mitotane (Lsodren)] here?
A: Its cell viability is 121.

Q: COc1ccc2cc([C@H](C)C(=O)[O-])ccc2c1.[Na+] [Naproxen Sodium] was tested. Which cell viability did it give?
A: Its cell viability is 111.

Q: Which cell viability does the source give for CCC1OC(=O)CC(O)C(C)C(OC2OC(C)C(O)C(N(C)C)C2O)C(CCN2CC(C)CC(C)C2)CC(C)C(=O)C=CC(C)=CC1COC1OC(C)C(O)C(OC)C1OC (stereo not given) [Tilmicosin] here?
A: The cell viability was 100.

Q: How did the cell viability turn out when O=c1c(-c2ccc(O)cc2)coc2cc(O)cc(O)c12 [Genistein] was run?
A: Its cell viability is 183.

Q: With COC(=O)C(Cc1ccccc1)NC(=O)C(N)CC(=O)O (stereo not given) [Aspartame] as the compound, how does the cell viability read?
A: Its cell viability is 120.

Q: COc1ccc(CC2c3cc(OC)c(OC)cc3CC[N+]2(C)CCC(=O)OCCCCCOC(=O)CC[N+]2(C)CCc3cc(OC)c(OC)cc3C2Cc2ccc(OC)c(OC)c2)cc1OC.O=S(=O)([O-])c1ccccc1.O=S(=O)([O-])c1ccccc1 (stereo not given) [Atracurium Besylate] was tested. Which cell viability did it give?
A: Its cell viability is 125.

Q: CSc1nc2cc(Oc3cccc(Cl)c3Cl)c(Cl)cc2[nH]1 [Triclabendazole] was tested. Which cell viability did it give?
A: Its cell viability is 106.

Q: CCCc1nc(C(C)(C)O)c(C(=O)O)n1Cc1ccc(-c2ccccc2-c2nn[nH]n2)cc1 [Olmesartan] was tested. Which cell viability did it give?
A: The cell viability was 97.9.

Q: CCCCCCCCCCCCCCCCOP(=O)([O-])OCC[N+](C)(C)C [Miltefosine] was tested. Which cell viability did it give?
A: The cell viability was 97.2.

Q: How did the cell viability turn out when CC(C)(C)c1cc(NC(=O)Nc2ccc(-c3cn4c(n3)sc3cc(OCCN5CCOCC5)ccc34)cc2)no1 [Quizartinib (AC220)] was run?
A: Its cell viability is 54.6.

Q: Which cell viability does the source give for CC(C)NCC(O)COc1ccc(CCOCC2CC2)cc1.Cl (stereo not given) [Levobetaxolol HCl] here?
A: Its cell viability is 109.

Q: With C=C1C(=CC=C2CCCC3(C)C2CCC3C(C)C=CC(C)C(C)C)CC(O)CC1O (stereo not given) [Doxercalciferol] as the compound, how does the cell viability read?
A: The cell viability was 83.

Q: For CCCC(=O)OCOC(=O)C1=C(C)NC(C)=C(C(=O)OC)C1c1cccc(Cl)c1Cl (stereo not given) [Clevidipine Butyrate], which cell viability is on record?
A: Its cell viability is 101.

Q: With NC(CSCCCO)C(=O)O (stereo not given) [Fudosteine] as the compound, how does the cell viability read?
A: Its cell viability is 112.

Q: Which cell viability does the source give for Cc1cc(C(C)(C)C)cc(C)c1CC1=NCCN1.Cl [Xylometazoline HCl] here?
A: Its cell viability is 103.

Q: For Cc1cc(=O)[nH]c(=S)[nH]1 [Methylthiouracil], which cell viability is on record?
A: Its cell viability is 99.

Q: With C[N+]1(C)[C@@H]2C[C@@H](OC(=O)C(O)(c3cccs3)c3cccs3)C[C@H]1[C@@H]1O[C@@H]12.[Br-] [Tiotropium Bromide] as the compound, how does the cell viability read?
A: Its cell viability is 87.1.

Q: For CNC1CCC(c2ccc(Cl)c(Cl)c2)c2ccccc21.Cl (stereo not given) [Sertraline HCl], which cell viability is on record?
A: The cell viability was 97.

Q: With COc1cc(Nc2ncc(F)c(Nc3ccc4c(n3)N(COP(=O)(O)O)C(=O)C(C)(C)O4)n2)cc(OC)c1OC [Fostamatinib (R788)] as the compound, how does the cell viability read?
A: The cell viability was 37.8.

Q: How did the cell viability turn out when C1N2CN3CN1CN(C2)C3 [Methenamine] was run?
A: Its cell viability is 94.6.

Q: For CC(C)(C#N)c1cc(Cn2cncn2)cc(C(C)(C)C#N)c1 [Anastrozole], which cell viability is on record?
A: The cell viability was 122.

Q: Which cell viability does the source give for CCCCCCNC(=O)n1cc(F)c(=O)[nH]c1=O [Carmofur] here?
A: Its cell viability is 82.2.

Q: With Cc1cc(NS(=O)(=O)c2ccc(N)cc2)no1 [Sulfamethoxazole] as the compound, how does the cell viability read?
A: The cell viability was 88.5.

Q: For CC12C=CC(=O)C=C1CCC1C2C(=O)CC2(C)C1CCC2(O)C(=O)CO (stereo not given) [Prednisone], which cell viability is on record?
A: The cell viability was 120.

Q: For CC(O)C1C(=O)N2C(C(=O)O)=C(SC3CNC(C(=O)N(C)C)C3)C(C)C12 (stereo not given) [Meropenem], which cell viability is on record?
A: Its cell viability is 86.1.

Q: CCN(CC)CCOc1ccc(C(=C(Cl)c2ccccc2)c2ccccc2)cc1.O=C(O)CC(O)(CC(=O)O)C(=O)O [Clomiphene citrate] was tested. Which cell viability did it give?
A: The cell viability was 102.

Q: How did the cell viability turn out when C#Cc1cccc(Nc2ncnc3cc(OC)c(OCCCCCCC(=O)NO)cc23)c1 was run?
A: Its cell viability is 92.5.

Q: CS(=O)(=O)Nc1ccc([N+](=O)[O-])cc1Oc1ccccc1 [Nimesulide] was tested. Which cell viability did it give?
A: The cell viability was 107.

Q: For O=C(NCCN1CCOCC1)c1ccc(Cl)cc1, which cell viability is on record?
A: Its cell viability is 110.

Q: With CNC(=O)c1cc(Oc2ccc(NC(=O)Nc3ccc(Cl)c(C(F)(F)F)c3)cc2)ccn1 [Sorafenib] as the compound, how does the cell viability read?
A: Its cell viability is 54.5.

Q: For Cc1nnc(NS(=O)(=O)c2ccc(N)cc2)s1 [Sulfamethizole], which cell viability is on record?
A: Its cell viability is 100.

Q: Which cell viability does the source give for Clc1ccc(COC(Cn2ccnc2)c2ccc(Cl)cc2Cl)c(Cl)c1.O=[N+]([O-])O (stereo not given) [Miconazole Nitrate] here?
A: Its cell viability is 113.

Q: How did the cell viability turn out when CC(O)C1C(=O)N2C(C(=O)O)=C(SC3CNC(CNS(N)(=O)=O)C3)C(C)C12 (stereo not given) [Doripenem] was run?
A: Its cell viability is 113.

Q: Which cell viability does the source give for N#CC(c1ccc(Cl)cc1)c1c(Cl)cc(-n2ncc(=O)[nH]c2=O)cc1Cl (stereo not given) [Diclazuril] here?
A: Its cell viability is 130.

Q: How did the cell viability turn out when N#CC(=C1SCC(c2ccc(Cl)cc2Cl)S1)n1ccnc1 (stereo not given) [Luliconazole] was run?
A: The cell viability was 83.5.

Q: With CCCCc1nc(Cl)c(CO)n1Cc1ccc(-c2ccccc2-c2nnn[n-]2)cc1.[K+] [Losartan Potassium (DuP 753)] as the compound, how does the cell viability read?
A: Its cell viability is 78.9.

Q: With Nc1ccc(C(=O)NCC(=O)[O-])cc1.[Na+] [Sodium 4-amiropparaty Hyalrate] as the compound, how does the cell viability read?
A: Its cell viability is 120.

Q: With COc1cc2nc(N(C)CCCNC(=O)C3CCCO3)nc(N)c2cc1OC.Cl (stereo not given) [Alfuzosin HCl] as the compound, how does the cell viability read?
A: The cell viability was 91.4.
